Here are results for five molecules from patent US20250346864A1, “MODULATION OF SATELLITE CELL POLARITY AND ASYMMETRIC CELL DIVISION” (Ottawa Hospital Research Institute, priority 2022, published 2025).

The target of test [1] is adapter protein-2 associated kinase 1 (AAK1) (Homo sapiens, UniProt Q2M2I8). To be noted: enzyme assay where stated; cited from earlier work.
In test [2] the target is BMP-2-inducible protein kinase (BIKE) (Homo sapiens, UniProt Q9NSY1). To be noted: cited from earlier work.
Test [3] deals with C57BL/10ScSn-Dmd^mdx/J (mdx) mouse model of Duchenne muscular dystrophy. In words: In vivo dose amounts in mdx mice, TA muscle strength.
Test [4] shares this test system. As to the kind of experiment: In vivo AAK1 inhibition after cardiotoxin injury of TA muscles in mdx mice. Conditions: 1 mg/kg IP day 0 and 3, CTX-injured TA.
Test [5] shares this test system. As to the kind of experiment: In vivo dosage regimens in mdx mice, TA histology and single cell assay. To be noted: for average Feret diameter / distribution of minimum myofiber Feret / total TA muscle fiber area: vs vehicle.
Test [6] concerns AP2M1 Thr156 phosphorylation. To be noted: dose-dependent; cited from earlier work.
Where [7] appears, read: 1 mg/kg vs 0.1 and 0.3 mg/kg, dose-dependent effect.
[8] abbreviates: 0.1, 0.3 or 1 mg/kg IP days 0, 3, 7, 10, right TA tested day 17.
[9] abbreviates: dosage regimen 1 (2×): 1 mg/kg IP day 0 and 3.
[10] abbreviates: dosage regimen 2 (4×): 1 mg/kg IP day 0, 3, 7, 10.
Setting [11] is: dosage regimen 3 (7×): 1 mg/kg IP day 0, 3, 5, 7, 10, 12, 14, 17.

Sequence of adapter protein-2 associated kinase 1 (AAK1) (Q2M2I8 whole entry): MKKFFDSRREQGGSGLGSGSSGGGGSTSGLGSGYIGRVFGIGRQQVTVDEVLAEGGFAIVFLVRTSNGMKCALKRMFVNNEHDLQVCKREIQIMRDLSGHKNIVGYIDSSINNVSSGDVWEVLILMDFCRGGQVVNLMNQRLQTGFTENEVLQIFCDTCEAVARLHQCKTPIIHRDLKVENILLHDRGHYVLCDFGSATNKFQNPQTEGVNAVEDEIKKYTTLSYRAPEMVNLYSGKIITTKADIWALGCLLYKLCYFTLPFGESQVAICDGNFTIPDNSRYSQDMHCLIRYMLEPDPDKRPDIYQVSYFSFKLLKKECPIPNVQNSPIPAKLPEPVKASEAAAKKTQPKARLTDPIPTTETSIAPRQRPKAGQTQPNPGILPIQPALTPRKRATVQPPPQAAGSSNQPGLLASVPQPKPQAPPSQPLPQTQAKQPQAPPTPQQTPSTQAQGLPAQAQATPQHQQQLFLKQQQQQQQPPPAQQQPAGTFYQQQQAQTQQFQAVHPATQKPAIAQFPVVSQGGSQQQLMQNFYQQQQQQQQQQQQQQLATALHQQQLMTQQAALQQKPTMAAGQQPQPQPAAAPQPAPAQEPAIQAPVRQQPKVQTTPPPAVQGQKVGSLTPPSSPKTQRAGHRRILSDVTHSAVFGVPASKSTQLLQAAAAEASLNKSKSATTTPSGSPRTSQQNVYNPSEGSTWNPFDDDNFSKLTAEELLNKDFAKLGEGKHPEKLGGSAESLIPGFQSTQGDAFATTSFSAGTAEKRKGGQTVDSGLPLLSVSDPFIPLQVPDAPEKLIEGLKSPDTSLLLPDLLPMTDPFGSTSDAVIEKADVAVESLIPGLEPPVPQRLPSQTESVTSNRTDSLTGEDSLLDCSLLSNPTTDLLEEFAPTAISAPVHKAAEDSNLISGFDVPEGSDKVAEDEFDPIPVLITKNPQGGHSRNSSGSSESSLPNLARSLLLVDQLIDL
Sequence of BMP-2-inducible protein kinase (BIKE) (Q9NSY1 whole entry): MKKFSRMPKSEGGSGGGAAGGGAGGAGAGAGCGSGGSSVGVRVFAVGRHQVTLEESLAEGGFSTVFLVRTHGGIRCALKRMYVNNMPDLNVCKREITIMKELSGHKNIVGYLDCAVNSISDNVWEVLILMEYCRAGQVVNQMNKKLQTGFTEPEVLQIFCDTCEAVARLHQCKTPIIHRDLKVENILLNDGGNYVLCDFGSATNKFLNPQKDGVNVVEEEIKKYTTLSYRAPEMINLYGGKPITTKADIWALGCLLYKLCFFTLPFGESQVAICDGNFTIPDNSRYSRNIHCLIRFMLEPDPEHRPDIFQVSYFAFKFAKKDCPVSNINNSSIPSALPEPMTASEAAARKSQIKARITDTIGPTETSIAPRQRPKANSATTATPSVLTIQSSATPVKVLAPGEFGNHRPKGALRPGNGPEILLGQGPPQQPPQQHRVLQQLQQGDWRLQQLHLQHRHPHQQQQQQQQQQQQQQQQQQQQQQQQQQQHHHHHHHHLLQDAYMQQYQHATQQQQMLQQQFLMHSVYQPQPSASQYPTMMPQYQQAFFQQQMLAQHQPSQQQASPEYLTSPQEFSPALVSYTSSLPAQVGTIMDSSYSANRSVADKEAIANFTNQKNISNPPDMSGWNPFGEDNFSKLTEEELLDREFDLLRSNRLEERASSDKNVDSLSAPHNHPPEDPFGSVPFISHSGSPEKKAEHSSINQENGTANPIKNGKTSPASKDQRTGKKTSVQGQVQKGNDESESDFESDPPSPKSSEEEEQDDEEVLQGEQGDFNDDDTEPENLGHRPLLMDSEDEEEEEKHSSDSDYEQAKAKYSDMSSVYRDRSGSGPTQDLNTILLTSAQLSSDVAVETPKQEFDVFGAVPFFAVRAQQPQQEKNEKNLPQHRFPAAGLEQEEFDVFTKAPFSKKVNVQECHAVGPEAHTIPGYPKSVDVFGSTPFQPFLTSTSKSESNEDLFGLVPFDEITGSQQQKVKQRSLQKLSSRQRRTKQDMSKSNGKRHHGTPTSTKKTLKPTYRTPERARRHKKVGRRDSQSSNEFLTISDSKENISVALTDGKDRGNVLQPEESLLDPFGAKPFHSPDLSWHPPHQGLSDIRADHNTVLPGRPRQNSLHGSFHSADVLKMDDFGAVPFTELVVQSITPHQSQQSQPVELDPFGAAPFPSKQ

For `Cc1nccc2c1c(=O)n(C)c1cc(OC[C@@H](N)CC(C)C)c(C#N)cc21` [BMT-090605], the concentration for half-maximal inhibition (IC50) in test [1] was 0.6 nM.
For `CC(=O)Nc1cc2c(cn1)COc1cc(OC[C@@](C)(N)CC(C)C)ccc1-2` [BMT-124110], in test [1], the IC50 is 0.9 nM.
As for `CN(CCNc1ccc2ncc(-c3ccc(C(N)=O)cc3)n2n1)C(=O)OC(C)(C)C` [LP-922761], the IC50 in test [2] is 24 nM.
As for `CC(C)C[C@](C)(N)COc1ccc(-c2ccnc(C(F)F)c2)nc1C(F)F` [LX9211, (S)-1-((2′,6-bis(difluoromethyl)-[2,4′-bipyridin]-5-yl)oxy)-2,4-dimethylpentan-2-amine], in test [3] (setting [7]), the “Max Tetanic Force, 1 mg/kg compared with lower doses” value was “larger increase”; the “Specific Force, 1 mg/kg compared with lower doses” value is “larger increase”; the “Twitch Force, 1 mg/kg compared with lower doses” value was “larger increase”. In test [3] (setting [8]), the “Max Tetanic Force (nM) normalized to controls” value was “significant increase”, the “Specific Force (mN/mm2) normalized to controls” value is “significant increase” and the “Twitch Force (mN) normalized to controls” value is given as “significant increase”. Besides, the “distribution of minimum myofiber Feret” value in test [4] (day 10, histology, vs vehicle) was “significant shift”. For the same molecule, the “increase in the percentage of MyoG+ cells” value in test [4] (day 10, single cell assay, vs DMSO) was about 100%. In addition, the “% of Pax7-positive (Pax7+) cells” value in test [4] (day 10, vs DMSO) is “not”. Besides, in test [5] (dosage regimen 1 (2×)), the “average Feret diameter” value was “Neither dosage regimen 1 or 3 significantly increased”, the “distribution of minimum myofiber Feret” value is listed as “nor did they significantly shift” and the “total TA muscle fiber area” value is given as “Neither dosage regimen 1 or 3 significantly increased”. In test [5] (setting [9]), the “muscle mass (TA area)” value is “Neither dosage regimen 1 (“2×”) or dosage regimen 3 (“7×”) significantly increased”, the “number of MyoG+ cells” value is listed as “increased”, the “number of Pax7+ cells” value was “increased” and the “percentage of MyoG+ cells” value is listed as “Neither dosage regimen 1 (“2×”) or dosage regimen 3 (“7×”) significantly increased”. Further, in test [5] (dosage regimen 2 (4×)), the “average Feret diameter” value is “increased”, the “distribution of minimum myofiber Feret” value was “significant shift” and the “total TA muscle fiber area” value was “increased”. Moreover, in test [5] (setting [10]), the “Pax7+ cells” value is given as “not”, the “increase in the number of MyoG+ cells” value is recorded as about 100%, the “increase in the percentage of MyoG+ cells” value is recorded as about 100% and the “muscle mass (TA area)” value was “increased”. In addition, in test [5] (dosage regimen 3 (7×)), the “average Feret diameter” value is “Neither dosage regimen 1 or 3 significantly increased”, the “distribution of minimum myofiber Feret” value was “nor did they significantly shift” and the “total TA muscle fiber area” value is listed as “Neither dosage regimen 1 or 3 significantly increased”. For the same molecule, in test [5] (setting [11]), the “muscle mass (TA area)” value was “Neither dosage regimen 1 (“2×”) or dosage regimen 3 (“7×”) significantly increased” and the “percentage of MyoG+ cells” value is recorded as “Neither dosage regimen 1 (“2×”) or dosage regimen 3 (“7×”) significantly increased”.
On to `CCN(CC)S(=O)(=O)Nc1cccc(-c2ccc3c(NC(=O)C4CC4)n[nH]c3c2)c1` [SGC-AAK1-1, N-(6-(3-(N,N-Diethylsulfamoylamino)phenyl)-1H-indazol-3-yl) cyclopropanecarboxamide], for which the “ECmax, downregulation of cellular AP2M1 Thr156 phosphorylation level” value in test [6] is about 12.5 µM.
